In PubChem BioAssay AID1347043 (National Center for Advancing Translational Sciences (NCATS), 2019):
The whole screen tested about 76,000 compounds, of which about 1,900 (2.5%) were called active. Inconclusive results, whose numbers are uncertain, are shown with a selection of clear calls. Calls come from the whole dose curve; as a rule, active = well fitted inhibition curve with a large enough effect; inconclusive = small, poorly fitted or top-dose-only effect; inactive = flat fitted curve, though single readings scatter. A potency beside an inconclusive call is a rough fit, not a confirmed value.
Note: nearly all actives have a fitted effect of over 65% in size.
Potency is the fitted concentration of half-maximal effect; tags give direction and shape of the fitted curve.

What follows are compounds tested against Luciferin 4-monooxygenase (Photinus pyralis) (UniProt P08659) (assay: Firefly luciferase inhibition profiling of diverse chemical library using quantitative high-throughput screening). Conditions: purified P. pyralis luciferase, luminescence, biochemical; series mostly up to 115 µM.
Chain of UniProt P08659 (P08659 whole entry, looked up): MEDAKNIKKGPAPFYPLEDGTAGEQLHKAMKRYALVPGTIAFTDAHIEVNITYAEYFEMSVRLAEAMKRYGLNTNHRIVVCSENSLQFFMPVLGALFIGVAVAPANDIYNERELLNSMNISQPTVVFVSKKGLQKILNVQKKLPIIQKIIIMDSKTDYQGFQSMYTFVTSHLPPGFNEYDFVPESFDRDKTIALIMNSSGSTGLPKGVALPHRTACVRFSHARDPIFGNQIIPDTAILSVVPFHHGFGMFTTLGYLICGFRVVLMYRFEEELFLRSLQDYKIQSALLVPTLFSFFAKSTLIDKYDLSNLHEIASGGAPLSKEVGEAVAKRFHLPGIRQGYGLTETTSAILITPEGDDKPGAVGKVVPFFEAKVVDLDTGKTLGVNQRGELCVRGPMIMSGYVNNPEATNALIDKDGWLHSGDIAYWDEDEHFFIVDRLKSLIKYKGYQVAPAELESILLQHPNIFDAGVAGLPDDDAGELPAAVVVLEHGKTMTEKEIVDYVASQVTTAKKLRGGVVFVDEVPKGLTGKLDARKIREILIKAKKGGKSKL
In short: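 Biochemical qHTS: compound (6-point titration) added to 10uM D-luciferin plus 10uM ATP in Tris acetate pH 7.5 buffer with Mg, Tween-20 and BSA, then purified enzyme at 10nM; light output imaged.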
In the case of Cc1cn2nc(-c3nc(C4CCCN(C(=O)Cc5ccsc5)C4)no3)cc2c(=O)[nH]1 (centres undefined), the Potency is reported as inconclusive: 20 µM [inhibitor, partial curve, poor fit]. In the case of COC[C@]1(O)CCN(C(=O)CSCc2ccccc2C)CC1(C)C, the Potency is reported as inconclusive: 50.1 µM [inhibitor, partial curve]. In the case of CC(C)n1cc2cc(C(=O)Nc3ccc4c(c3)OCCO4)sc2c1, the Potency is reported as active: 14.1 µM. In the case of COc1ccc(NC(=O)c2cc(-c3ccc[nH]3)n[nH]2)cc1, the Potency is reported as active: 12.6 µM. O=C(Nc1ccccc1)C1CCN(C(=O)c2ncn3c2COC(c2ccccc2)C3)CC1 (centres undefined) was tested, and the Potency was active: 2 µM. COc1ccc(-c2cnc3n[nH]c(-c4ccc(F)cc4C)c3n2)cc1OC was tested, and the Potency was “inactive”. For Cn1cccc1C(=O)N1CC(F)(F)C[C@H]1c1nnc(C2CC2)o1, the Potency was “inactive”. CC(=O)N1CCNc2cc(Nc3ccc(F)cc3)ncc2C1 was tested, and the Potency was active: 2.24 µM. CC(=O)Nc1cccc(C(=O)N2CCC(n3cc(-c4nc(-c5ccccc5)no4)nn3)C2)c1 (centres undefined) was tested, and the Potency was inconclusive: 35.5 µM [inhibitor, partial curve]. With O=C(Nc1ccc(F)cc1)c1ccn2cncc2c1 the Potency was inconclusive: 100 µM [inhibitor, partial curve]. In the case of Cc1ncc2n1C(=O)N(C1CCN(C(=O)c3ccccc3F)CC1)C2, the Potency is reported as “inactive”. For COc1cc(C(=O)N2CCN(c3cc(-c4ccc(Cl)cc4)[nH]n3)CC2)cc(OC)c1OC, the Potency was “inactive”. For Cc1ccc(C2=NC3(CCN(C(=O)c4ccc(C)c(F)c4)CC3)ON2)cc1, the Potency was inconclusive: 44.7 µM [inhibitor, partial curve]. In the case of CN(Cc1ccc2nccnc2c1)C(=O)c1cc(COc2ccc(F)cc2F)on1, the Potency is reported as inconclusive: 44.7 µM [inhibitor, partial curve]. With COc1ccc(-c2cn3c(n2)CO[C@@H](CNCc2ccccc2OC)C3)cc1 the Potency was inconclusive: 112 µM [inhibitor, partial curve, poor fit]. For COc1cccc(C(=O)N2CCCC(n3cc(-c4nc(-c5ccccc5)no4)nn3)C2)c1 (centres undefined), the Potency was inconclusive: 44.7 µM [inhibitor, partial curve]. With CCOC(=O)c1ccc(NC(=O)N2Cc3[nH]cnc3C[C@H]2c2nc(-c3ccc(C)cc3)no2)cc1 the Potency was active: 31.6 µM. With CC(C)(C)c1ccc(C(=O)Nc2ccc(C(O)[C@H]3COCC(=O)N3Cc3ccccn3)cc2)cc1 (some centres undefined) the Potency was active: 15.8 µM. With CSCC(=O)N[C@H]1CCN2C(=O)c3cc(/C=C/c4ccccc4)ccc3NC(=O)[C@H]12 the Potency was active: 11.2 µM. O=C(NCCc1ccccc1)N1CCCC(c2noc(COc3ccccc3)n2)C1 (centres undefined) was tested, and the Potency was inconclusive: 44.7 µM [inhibitor, partial curve]. With O=C(CCCc1ccccc1)Nc1ccc(OC2CCNCC2)nc1 the Potency was inconclusive: 50.1 µM [inhibitor, partial curve, poor fit]. In the case of CCNc1ccnc(N2CCN(Cc3cccc(OC)c3)C(CCO)C2)n1 (centres undefined), the Potency is reported as inconclusive: 44.7 µM [inhibitor, partial curve]. In the case of Fc1ccc(CN2CCOC[C@H]2c2ncc(-c3ccc(Cl)s3)[nH]2)cc1, the Potency is reported as “inactive”. CN(Cc1ccc(F)cc1)c1ccc2ncc(Nc3ccc4c(c3)OCCO4)n2n1 was tested, and the Potency was “inactive”. For COc1ccc(NC(=O)Nc2cccc(-c3ccc(N4CCOCC4)nn3)c2)cc1, the Potency was active: 1.12 µM. For Cc1cccc(NC(=O)Nc2ccc(C)n(CC(=O)NCCN3CCCCC3)c2=O)c1, the Potency was inconclusive: 44.7 µM [inhibitor, partial curve]. For CCOc1ccc(C(=O)N2CCC(n3cc(-c4nc(-c5ccccc5)no4)nn3)CC2)cc1, the Potency was inconclusive: 39.8 µM [inhibitor, partial curve]. For Nc1nccc(N2CCCC(Cc3ccccc3F)(C(=O)O)C2)n1 (centres undefined), the Potency was “inactive”. In the case of CC(=O)N1CCCN(Cc2nnc(C(=O)N3CCC[C@@H]3c3cccc(F)c3)n2-c2ccccc2)CC1, the Potency is reported as “inactive”. In the case of CCn1cnnc1CCNC(=O)c1cc(-c2ccc(C)cc2)nc2ccccc12, the Potency is reported as inconclusive: 39.8 µM [inhibitor, partial curve]. In the case of CCNC(=O)N(C1CC1)C1CCOC2(CCN(C(=O)Nc3ccccc3F)CC2)C1 (centres undefined), the Potency is reported as “inactive”. For O=C(Nc1ccc(F)cc1)c1cccn2cncc12, the Potency was active: 44.7 µM. In the case of COc1ccc(-c2ccc3c(c2)C(=O)N2CCN(C(=O)c4cccc(F)c4)C[C@@H]2C(=O)N3)cc1, the Potency is reported as inconclusive: 44.7 µM [inhibitor, full curve]. With NCCc1noc(Cc2ccccc2)n1 the Potency was “inactive”. COc1cccc(NC(=O)N2[C@@H]3CC[C@H]2CC(NC(=O)c2cnc(C)cn2)C3)c1 (some centres undefined) was tested, and the Potency was inconclusive: 50.1 µM [inhibitor, partial curve, poor fit]. In the case of COc1cccc(NC(=O)[C@@H]2C[C@H](c3ccc(F)cc3)N(Cc3csc(C)n3)C2)c1, the Potency is reported as “inactive”. In the case of O=C(NCc1ccc2c(c1)OCO2)C1CCc2sc(C(=O)N3CCCCCC3)cc2C1 (centres undefined), the Potency is reported as “inactive”. In the case of N#Cc1ccc(C(=O)N[C@H]2[C@H](O)[C@H](O)C[C@@H]2c2cccnc2)cc1, the Potency is reported as “inactive”. With O=C(CCC1CCN(C(=O)c2ccccc2F)CC1)NC1CC1 the Potency was inconclusive: 39.8 µM [inhibitor, partial curve]. For Cc1cc(Cl)ccc1-n1nc(C)c([C@@H]2C=C[C@@H](NC(=O)CCCC(=O)O)C2)c1C, the Potency was inconclusive: 70.8 µM [inhibitor, partial curve]. In the case of CC(C)CCNC(=O)N1c2ccccc2CC1c1noc(C2CCOCC2)n1 (centres undefined), the Potency is reported as inconclusive: 50.1 µM [inhibitor, partial curve]. For C[S+](=O)([O-])CCn1ncc2cc(OCc3cccc(-c4ccc(F)cc4)c3)ccc21, the Potency was active: 10 µM. For COc1ccccc1-c1ccc(C(=O)N2C[C@@H](N(C)C)[C@H](C(C)C)C2)cc1, the Potency was “inactive”. For O=C1NC(C(=O)N2CCN(Cc3ccc4c(c3)OCO4)CC2)Cn2cccc21 (centres undefined), the Potency was “inactive”. For Cc1cc(CN(C)C(=O)c2cc(COc3ccc(F)cc3F)on2)on1, the Potency was inconclusive: 44.7 µM [inhibitor, partial curve]. For Cc1ccsc1CN1CCC(Oc2ccccc2-c2nc(-c3ccncc3)no2)C1 (centres undefined), the Potency was inconclusive: 56.2 µM [inhibitor, partial curve, poor fit]. With O=C(NC[C@H]1OC[C@@H](NCc2ncc[nH]2)[C@@H]1O)c1cccs1 the Potency was inconclusive: 126 µM [inhibitor, single point]. For COc1ccc(C2Cn3nnc(-c4noc(-c5ccc[nH]5)n4)c3CO2)cc1 (centres undefined), the Potency was “inactive”. CNC(=O)Nc1ccc(C)n(CC(=O)N2CCN(c3cccc(Cl)c3)CC2)c1=O was tested, and the Potency was inconclusive: 50.1 µM [inhibitor, partial curve, poor fit]. With Cc1c(-c2ccc(F)cc2)[nH]c2ccc(CNC(=O)[C@@H]3CCCO3)cc12 the Potency was active: 35.5 µM. For O=C1NC2(CCN(C(=O)c3ccc(C(F)(F)F)cc3)C2)Oc2ccccc21 (centres undefined), the Potency was “inactive”. Cc1cc(-c2cc3c(cn2)CN(Cc2ccc(F)c(F)c2)CCN3)ccn1 was tested, and the Potency was active: 39.8 µM. In the case of O=[N+]([O-])c1cccc(-c2noc([C@@H]3C[C@@H](O)CN3Cc3cccs3)n2)c1, the Potency is reported as inconclusive: 126 µM [inhibitor, single point]. In the case of O=C(c1cc2ccccc2[nH]1)N1CCC(N2CC(OCC3CC3)C23CCOCC3)CC1 (centres undefined), the Potency is reported as inconclusive: 11.2 µM [inhibitor, full curve]. With N#Cc1ccc2nc([C@H]3CCN(Cc4ccccn4)C3)[nH]c2c1 the Potency was inconclusive: 126 µM [inhibitor, single point]. In the case of O=C(NCc1ccccc1)C1CCN(C(=O)c2ncn3c2COC(c2ccc(F)cc2)C3)CC1 (centres undefined), the Potency is reported as inconclusive: 39.8 µM [inhibitor, partial curve]. C1=C(c2cc(-c3cccc4[nH]ccc34)cn3cncc23)CCOC1 was tested, and the Potency was inconclusive: 31.6 µM [inhibitor, partial curve]. Cc1cccc(CCNC(=O)c2noc(-c3ccc4c(c3)OCO4)n2)c1 was tested, and the Potency was inconclusive: 39.8 µM [inhibitor, partial curve, poor fit]. For COc1ccc(NC(=O)c2cc3n(n2)CC(c2ccc(Cl)cc2)OC3)cc1 (centres undefined), the Potency was inconclusive: 50.1 µM [inhibitor, partial curve]. In the case of O=C(c1ccc(F)cc1)N1CCCC(n2cc(-c3nc(-c4ccccc4)no3)nn2)C1 (centres undefined), the Potency is reported as inconclusive: 100 µM [inhibitor, single point]. In the case of COc1ccc(-c2cc(C[C@@H]3CC[C@H](O)[C@@H](CN(C)C)O3)no2)cc1, the Potency is reported as inconclusive: 112 µM [inhibitor, partial curve, poor fit]. For O=C(Cc1ccccc1)N1CCN(c2cc(-c3ccccc3)[nH]n2)CC1, the Potency was “inactive”. With O=C(CCC1CCN(c2cc(NC3CC3)ncn2)CC1)Nc1ccccc1 the Potency was inconclusive: 39.8 µM [inhibitor, partial curve]. In the case of COCCOC1CCN(C(=O)NCCc2ccccc2)CC1, the Potency is reported as inconclusive: 50.1 µM [inhibitor, partial curve]. Cc1ccc(C(=O)N2CCCC(n3cc(-c4nc(-c5ccccc5)no4)nn3)C2)cc1 (centres undefined) was tested, and the Potency was inconclusive: 50.1 µM [inhibitor, partial curve]. In the case of O=C(Nc1cccc2ccccc12)O[C@@H]1CO[C@H]2[C@@H]1OC[C@@H]2n1nnnc1-c1ccc(-c2ccccc2)cc1, the Potency is reported as “inactive”. In the case of COCCC(=O)N1CC(F)(F)C[C@H]1c1nc(-c2ccncc2)no1, the Potency is reported as “inactive”. For Cc1ccc(-c2cn3c(n2)CO[C@@H](CNC(C)C)C3)cc1, the Potency was active: 39.8 µM. In the case of O=C(Nc1ccccc1)Nc1ccc([C@H]2OCC(=O)N(Cc3ccccc3)[C@@H]2CO)cc1, the Potency is reported as inconclusive: 44.7 µM [inhibitor, partial curve, poor fit].
